# Experimental data reported in PubChem BioAssay (Tox21).
# Inconclusive results, whose numbers are uncertain, are shown with a selection of clear calls. For some assays here: Potencies of inconclusive entries are doubtful fits and often do not repeat. The source made the active and inactive calls. Unless noted, calls come from the whole dose curve; as a rule, active = well fitted curve in the direction sought with a large enough effect in the repeat runs; inconclusive = weak or mixed curves; inactive = no such curve, though single readings can be large; an effect the other way counts as inactive or inconclusive.
# Assays:
# [1] = target: Aryl hydrocarbon receptor (Homo sapiens) (UniProt P35869); test: qHTS assay to identify small molecule that activate the aryl hydrocarbon receptor (AhR) signaling pathway (AID 743085); note: nearly all actives have a fitted effect of over 15% in size; note: potency is the fitted concentration of half-maximal effect;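 for activation: HG2L7.5c1 human HepG2 liver cells with stably integrated DRE-driven firefly reporter; % is set by controls: 0 for no effect and ±100 for the full control effect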
# Method in brief: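 Steps: seed HepG2-AhR-luc cells; allow 5 h at 37C; pin-transfer test compound or vehicle; incubate 24 h at 37C; add viability dye (30 min, 37C) and read fluorescence; add luciferase substrate (30 min, RT) and read luminescence.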
# [2] = target: Peroxisome proliferator-activated receptor gamma (Homo sapiens) (UniProt P37231); test: qHTS assay to identify small molecule agonists of the peroxisome proliferator-activated receptor gamma (PPARg) signaling pathway (AID 743094; active = well fitted activation curve with a large enough effect in the signal ratio in the repeat runs, not every such curve was filed as active; inconclusive = weak or mixed curves, or effect the other way; inactive = no such curve, though single readings can be large or run the other way; the % refers to the signal ratio; note: % is set by controls: 0 for no effect and ±100 for the full control effect); details: HEK293H PPARg-UAS-bla, beta-lactamase FRET ratio, 17 h; activation: at 57 µM (top of the series) unless noted
# Method in brief: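 Agonist activity was taken from a beta-lactamase reporter (FRET substrate, 1 h at room temperature) in HEK293H cells carrying a PPARg UAS-bla construct. Compounds in DMSO were incubated 17 h at 37C after a 5 h cell pre-incubation.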
# [3] = target: Peroxisome proliferator-activated receptor gamma (Homo sapiens) (UniProt P37231); test: qHTS assay to identify small molecule antagonists of the peroxisome proliferator-activated receptor gamma (PPARg) signaling pathway (AID 743191; calls by dose curve; note: nearly all actives have a fitted effect of over 30% in size; note: potency is the fitted concentration of half-maximal effect; for ratio activity, negative = inhibition: % is set by controls: 0 for no effect and ±100 for the full control effect); details: HEK293H PPARg-UAS-bla, beta-lactamase ratio, antagonist, 17 h; ratio activity, negative = inhibition: at 62.6 µM (top of the series) unless noted
# Method in brief: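 GeneBLAzer PPARg UAS-bla HEK293H cells carrying a UAS-driven beta-lactamase reporter were plated at 3000 cells/well, preincubated 5 h at 37C, then given compound for 17 h at 37C; LiveBLAzer B/G FRET substrate was read after 1 h at room temperature.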
# [4] = qHTS assay for small molecule agonists of the antioxidant response element (ARE) signaling pathway (AID 743202; active = well fitted activation curve with a large enough effect in the signal ratio in the repeat runs, not every such curve was filed as active; inconclusive = weak or mixed curves, or effect the other way; inactive = no such curve, though single readings can be large or run the other way; the % refers to the signal ratio; note: potency is the fitted concentration of half-maximal effect); details: HepG2 ARE-bla reporter, beta-lactamase FRET, 16 h
# Method in brief: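 Steps: seed ARE-bla HepG2 cells (2,000/well); incubate 5 h at 37 C; add compounds by pin tool; incubate 16 h at 37 C; add FRET substrate; read fluorescence after 2 h at RT.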
# [5] = qHTS assay for small molecule agonists of the antioxidant response element (ARE) signaling pathway - cell viability counter screen (AID 743203; calls by dose curve; note: potency is the fitted concentration of half-maximal effect; nearly all actives have a fitted effect of over 55% in size); details: ARE-bla HepG2 viability, CellTiter-Glo luminescence, 16 h; viability change, negative = cytotoxic: at 73.3 µM (top of the series)
# Method in brief: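 Viability counter screen: CellTiter-Glo luminescence, read after 30 min at room temperature, in ARE-bla HepG2 wells. Compound exposure lasted 16 h at 37C/5% CO2, following a 5 h pre-incubation of the cells after plating.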
# [6] = qHTS assay for small molecule activators of the heat shock response signaling pathway (AID 743210; active = well fitted activation curve with a large enough effect in the signal ratio in the repeat runs, with a control signal flat, not every such curve was filed as active; inconclusive = weak or mixed curves; the % refers to the signal ratio; note: potency is the fitted concentration of half-maximal effect;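 for activation: HeLa cells with beta-lactamase reporter driven by heat shock elements; % is set by controls: 0 for no effect and ±100 for the full control effect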); details: HeLa HSE-bla reporter, beta-lactamase ratio, 5 h; activation: at 62.6 µM (top of the series) unless noted
# Method in brief: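 Activation of heat shock element-controlled beta-lactamase expression is measured in HeLa cells by LiveBLAzer FRET fluorescence, with compound exposure lasting 5 h at 37 C and substrate loading 2.5 h at room temperature.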
# [7] = qHTS assay to identify small molecule agonists of the peroxisome proliferator-activated receptor delta (PPARd) signaling pathway - cell viability counter screen (AID 743211); details: PPARd-bla HEK293H viability, CellTiter-Glo luminescence, 17 h; activity change, negative = cytotoxicity: at 62.6 µM (top of the series); note: nearly all actives have a fitted effect of over 55% in size; note: potency is the fitted concentration of half-maximal effect
# Method in brief: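 Viability of GeneBLAzer PPARd UAS-bla HEK293H cells was assessed after 17 h compound incubation at 37C, using CellTiter-Glo reagent added after the reporter read and luminescence recorded 30 min later.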
# [8] = qHTS assay to identify small molecule antagonists of the peroxisome proliferator-activated receptor gamma (PPARg) signaling pathway - cell viability counter screen (AID 743194); details: PPARg-bla HEK293H viability, CellTiter-Glo luminescence, 17 h, co-treated with 50 nM rosiglitazone; activity change, negative = cytotoxicity: at 62.6 µM (top of the series) unless noted; note: nearly all actives have a fitted effect of over 55% in size; note: potency is the fitted concentration of half-maximal effect
# Method in brief: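 PPARg-UAS-bla HEK293H cells were plated, rested 5 h at 37 C, then treated with compounds plus rosiglitazone (50 nM final) for 17 h at 37 C; viability was then read by CellTiter-Glo luminescence after 30 min at room temperature.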
# [9] = qHTS assay for small molecule activators of the heat shock response signaling pathway - cell viability counter screen (AID 743209); details: HSE-bla HeLa viability, CellTiter-Glo luminescence, 5 h; activity change, negative = cytotoxicity: at 62.6 µM (top of the series) unless noted; note: nearly all actives have a fitted effect of over 50% in size; note: potency is the fitted concentration of half-maximal effect
# Method in brief: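 Cytotoxicity counter screen run in the same wells as the heat-shock bla reporter assay: HeLa HSE-bla cells, 5 h compound exposure at 37 C, viability read by CellTiter-Glo luminescence.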
# [10] = activation: at 73.3 µM (top of the series) unless noted
# Tags give direction and shape of the fitted curve or compound fluorescence and quenching.
# Chain of UniProt P35869 (P35869 whole entry, looked up): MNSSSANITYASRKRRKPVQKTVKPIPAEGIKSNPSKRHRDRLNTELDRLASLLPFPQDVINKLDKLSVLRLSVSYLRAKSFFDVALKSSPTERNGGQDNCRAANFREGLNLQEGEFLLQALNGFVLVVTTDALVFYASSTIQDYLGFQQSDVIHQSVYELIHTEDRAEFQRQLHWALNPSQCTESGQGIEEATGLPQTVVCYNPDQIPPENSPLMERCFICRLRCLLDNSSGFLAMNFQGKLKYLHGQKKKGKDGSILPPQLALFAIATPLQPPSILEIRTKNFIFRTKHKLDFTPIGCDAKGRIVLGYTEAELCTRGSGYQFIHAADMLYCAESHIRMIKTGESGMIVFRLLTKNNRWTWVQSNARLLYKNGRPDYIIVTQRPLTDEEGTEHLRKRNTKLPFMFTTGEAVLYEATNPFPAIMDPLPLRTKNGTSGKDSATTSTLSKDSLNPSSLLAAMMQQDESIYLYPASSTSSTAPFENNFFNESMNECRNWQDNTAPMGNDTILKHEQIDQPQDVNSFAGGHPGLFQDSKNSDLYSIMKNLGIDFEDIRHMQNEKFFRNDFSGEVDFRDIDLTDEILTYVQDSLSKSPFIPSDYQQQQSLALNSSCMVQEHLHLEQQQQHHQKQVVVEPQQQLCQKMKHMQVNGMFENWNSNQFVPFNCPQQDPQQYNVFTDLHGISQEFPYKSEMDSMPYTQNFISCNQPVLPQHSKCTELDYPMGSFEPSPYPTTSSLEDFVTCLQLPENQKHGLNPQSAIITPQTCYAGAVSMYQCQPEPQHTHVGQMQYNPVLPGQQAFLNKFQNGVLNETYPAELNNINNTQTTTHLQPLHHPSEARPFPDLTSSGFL
# Chain of UniProt P37231 (P37231 whole entry, looked up): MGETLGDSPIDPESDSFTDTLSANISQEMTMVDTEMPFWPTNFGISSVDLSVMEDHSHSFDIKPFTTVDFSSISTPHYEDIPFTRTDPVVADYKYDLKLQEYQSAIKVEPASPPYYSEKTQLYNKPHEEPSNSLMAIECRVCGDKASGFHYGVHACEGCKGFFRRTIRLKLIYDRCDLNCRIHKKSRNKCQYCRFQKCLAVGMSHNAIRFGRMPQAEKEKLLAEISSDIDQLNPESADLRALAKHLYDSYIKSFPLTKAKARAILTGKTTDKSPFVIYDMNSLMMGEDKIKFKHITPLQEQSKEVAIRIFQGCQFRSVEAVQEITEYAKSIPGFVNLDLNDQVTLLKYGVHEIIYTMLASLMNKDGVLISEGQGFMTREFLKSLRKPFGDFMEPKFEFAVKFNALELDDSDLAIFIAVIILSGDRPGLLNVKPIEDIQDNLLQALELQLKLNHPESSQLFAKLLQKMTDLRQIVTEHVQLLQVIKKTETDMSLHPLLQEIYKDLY
smiles,measurement,setting,value
COC(=O)Nc1nc2ccc(C(=O)c3cccs3)cc2[nH]1,Potency,[1],active: 3.76 µM
same,activation,[2],inconclusive: -11%
same,"ratio activity, negative = inhibition",[3],inconclusive: -12.2%
same,Potency,[4]; [10],active: 0.75 µM
same,Potency,[5],"inconclusive: 0.75 µM [rising, full curve]"
same,activation,[6],inconclusive: 8.93%
NC(=O)Nc1nc2ccccc2[nH]1,Potency,[1],"inconclusive: 68 µM [activator, partial curve, poor fit]"
same,Potency,[3],inactive
same,Potency,[4]; [10],"inconclusive: 54 µM [falling, partial curve]"
CCCCCC(C)OC(=O)COc1ccc(Cl)c2cccnc12 (configuration not stated),Potency,[1],"inconclusive: 54.5 µM [activator, partial curve, poor fit]"
same,Potency,[3],inconclusive: 54.9 µM
same,Potency,[7],"inconclusive: 21.9 µM [cytotoxic, full curve]"
NCCCN1CCN(CCCN)CC1,Potency,[1],inactive
same,Potency,[8],inactive
same,Potency,[4]; [10],inactive
O=C(O)C(=O)Cc1c[nH]c2ccccc12,Potency,[1],active: 6.11 µM
same,Potency,[3],inactive
same,Potency,[4]; [10],active: 27.3 µM
same,Potency,[6],inactive
O=C1CCc2ccccc2O1,Potency,[1],inactive
same,Potency,[3],inactive
same,activation,[4]; [10],inconclusive: -12.2%
same,activation,[4]; at 94.8 µM (top of the series),inactive: -3.2%
CCCCCCCC/C=C\CCCCCCCC(=O)OCCO,Potency,[1],inactive
same,Potency,[3],inactive
same,activation,[4]; [10],inconclusive: 26.3% [at 94.8 µM]
same,Potency,[9],active: 64.9 µM
O=C(O)CCS,Potency,[1],inactive
same,"ratio activity, negative = inhibition",[3],inconclusive: 10.7% [at 81.1 µM]
same,Potency,[9],"inconclusive: 49.9 µM [rising, single point]"
CCC(=O)c1c(O)cc(O)cc1O,Potency,[1],"inconclusive: 26.6 µM [activator, partial curve]"
same,Potency,[4]; [10],"inconclusive: 33.5 µM [rising, partial curve, poor fit]"
COc1ccc(NC(=O)CC(C)=O)cc1,Potency,[1],"inconclusive: 54.5 µM [activator, partial curve, poor fit]"
same,Potency,[4]; [10],"inconclusive: 38.6 µM [rising, partial curve]"
CC(=O)c1ccc(OCC(=O)N2CCCCC2)cc1,Potency,[1],"inconclusive: 18.8 µM [activator, partial curve]"
same,Potency,[3],inactive
same,Potency,[4]; [10],inactive
same,Potency,[9],inactive
same,Potency,[6],inactive
CC(=O)CC/C=C(\C)CC/C=C(\C)CC/C=C(\C)CCC=C(C)C,Potency,[1],"inconclusive: 33.5 µM [activator, single point]"
same,activation,[4]; [10],inconclusive: 24.2%
C=COCCOCCOC=C,Potency,[1],inactive
same,activation,[4]; [10],inconclusive: -0.198%
CCC(CC)(CC(=O)Nc1cccc(/C=C/c2nc(C3CCC3)cs2)c1)C(=O)O,Potency,[1],active: 8.41 µM
same,Potency,[3],inconclusive: 26.6 µM
same,Potency,[4]; [10],"inconclusive: 11.9 µM [rising, partial curve]"
same,Potency,[5],"inconclusive: 29.8 µM [rising, partial curve, poor fit]"
same,Potency,[9],inactive
CSCC[C@H](NC(=O)[C@H](Cc1c[nH]c2ccccc12)NC(=O)CCNC(=O)OC(C)(C)C)C(=O)N[C@@H](CC(=O)O)C(=O)N[C@@H](Cc1ccccc1)C(N)=O,Potency,[1],"inconclusive: 26.6 µM [activator, partial curve, poor fit]"
same,Potency,[3],inactive
same,Potency,[7],inactive
CCCCCCCCCO,Potency,[1],inactive
same,"ratio activity, negative = inhibition",[3],inconclusive: 2.03%
same,activation,[4]; [10],inconclusive: -15.8%
same,Potency,[6],inactive
BrC(Br)C(Br)Br,Potency,[1],"inconclusive: 15.3 µM [activator, partial curve, poor fit]"
same,"ratio activity, negative = inhibition",[3],inconclusive: -3.62%
same,Potency,[9],"inconclusive: 0.435 µM [cytotoxic, partial curve, poor fit]"
COc1ccc(/C=C/C(=O)c2ccc(OC)cc2OC)cc1,Potency,[1],"inconclusive: 15 µM [activator, partial curve]"
same,Potency,[3],active: 9.44 µM
same,Potency,[4]; [10],"inconclusive: 9.44 µM [falling, partial curve, poor fit]"
same,Potency,[6],inconclusive: 24.6 µM
O=c1cc(O)c(Cl)c[nH]1,Potency,[1],inactive
same,Potency,[3],inactive
same,activation,[4]; [10],inconclusive: 13%
CCC1CCC(CCC(=O)O)C1 (configuration not stated),Potency,[1],"inconclusive: 22.2 µM [activator, partial curve, poor fit]"
same,Potency,[3],"inconclusive: 56.2 µM [rising, single point]"
same,Potency,[4]; [10],inconclusive: 78.7 µM
same,Potency,[6],"inconclusive: 56.2 µM [falling, partial curve, poor fit]"
CCCCCCCCN1CCCC1=O,Potency,[1],inactive
same,Potency,[4]; [10],"inconclusive: 54.5 µM [rising, partial curve]"
O=S1(=O)CCCO1,Potency,[1],inactive
same,Potency,[8],"inconclusive: 61.6 µM [rising, single point]"
same,activation,[4]; [10],inconclusive: 0.074% [at 94.8 µM]
same,Potency,[9],"inconclusive: 6.94 µM [cytotoxic, full curve, poor fit]"
CC(N)C12CC3CC(CC(C3)C1)C2 (configuration not stated),Potency,[1],inactive
same,Potency,[4]; [10],inactive
